Results as given in PubChem BioAssay AID1963576 (National Center for Advancing Translational Sciences (NCATS), 2024).
Out of some 46,000 compounds screened, about 60 (0.1%) were called active. Another 3% or so got no clear call; they are omitted. Calls follow the shape of the dose curve; as a rule, active = well fitted inhibition curve with a large enough effect; inconclusive = small, poorly fitted or top-dose-only effect; inactive = no such curve, though single readings can be large or run the other way. This is one part of the list.

experiment: Primary qHTS assay for Inhibitors of ovarian cancer metastasis using an organotypic tumor microenvironment (TME) model.; also: nearly all actives have a fitted effect of over 65% in size;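 as to activity change, negative = inhibition: plate controls were DMSO wells for no effect and tomatine positive control wells for full effect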; conditions: SKOV3ip1-GFP adhesion/invasion on 3D omental model, fluorescence; series mostly up to 45.8 µM; activity change, negative = inhibition: at the top concentration
Outline: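 A 3D layer of primary human omental fibroblasts, mesothelial cells, fibronectin and collagen I, grown 48 hr, received SKOV3ip1-GFP cells in serum-free medium plus compounds at 0.36-46 umol/L. After 2 hr RT and 16 hr 37 C, fixed adherent GFP cells were counted; normalized to DMSO and tomatine.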

Activity change, negative = inhibition, inactive:
Cc1ccc(CNC(=O)CSc2n[nH]c(-c3ccc(F)cc3)n2)cc1 -0.0431%
Cc1ccc(Cl)cc1N1CCN(Cc2nnc(-c3ccc4c(c3)OCO4)o2)CC1 0.475%
O=c1oc2c(CN3CCN(CCO)CC3)c(O)ccc2cc1-c1ccccc1 3.63%
Fc1ccc(-c2noc3ncnc(NCCCN4CCN(c5ccccc5)CC4)c23)cc1 -2.23%
COc1ccc(-c2nc3c(C#N)c[nH]n3c2NC2CCCC2)c(OC)c1 -9.42%
Cc1ccc(NC(=O)CCc2c(C)nc3cc(-c4ccccc4)nn3c2C)cc1F -24.9%
CCc1cc(C(=O)Nc2cnn(Cc3ccccc3C)c2)no1 14%
CCOC(=O)c1c(S(=O)(=O)N2CCCC(C(=O)Nc3cccc(C)n3)C2)c(C)n(C)c1C (stereo unspecified) 4.05%
CCOc1ccc(C2CC(=O)Nc3c2c(=O)nc(SCc2ccccc2C)n3C)cc1OC (stereo unspecified) -9.37%
O=C(Nc1sc2c(c1C(=O)NCC1CCCO1)CCC2)c1cc(=O)c2ccccc2o1 (stereo unspecified) 7.05%
COc1ccc(CNC(=O)C2CCN(c3nc4ccccc4[nH]3)CC2)cc1OC 1.53%
COCCCNc1oc(-c2ccc(COc3ccc(Cl)cc3)o2)nc1C#N 13.1%
COC(=O)c1ccc(OCC2c3cc(OC)c(OC)cc3CCN2C(=O)c2ccc(F)cc2)cc1 (stereo unspecified) -9.92%
Cc1ccc(NC(=O)CSc2nnc3scc(-c4ccccc4)n23)cc1 1.75%
Cc1ccc2c(=O)cc(C(=O)Nc3cccc(C(F)(F)F)c3)oc2c1C 0.173%
Cc1cccn2c(=O)c3cc(C(=O)NC(C)c4ccccc4)c(=N)n(CCCO)c3nc12 (stereo unspecified) 8.66%
CCOCCc1nn2c(=O)cc(COC(=O)C3CCCCC3)nc2s1 -0.891%
CCOC(=O)c1c(C)[nH]c(C)c1S(=O)(=O)N1CCCC(C(=O)N2CCN(c3ccccc3)CC2)C1 (stereo unspecified) -8.4%
Cc1c(CCOc2ccc(C(=O)O)cc2)c2cc(Cl)ccc2n1C(c1ccccc1)c1ccccc1 -5.26%
O=C(NCCCN1CCN(c2ccc(F)cc2)CC1)c1ccc2nc(Cc3ccccc3)oc2c1 -17.2%
CCOc1ccc(CN2CCc3nc(Nc4ccc(OC)cc4OC)ncc3C2)cc1 0.319%
CCSC1=NC2(CCN(C(=O)NC3CCCCC3)CC2)N=C1c1ccc(Cl)cc1 3.06%
S=C(NCc1ccc2c(c1)OCO2)N1CCN(c2ncnc3c2oc2ccccc23)CC1 -8.94% [at 92.2 µM]
COc1ccc(NC(=O)c2c(-c3ccc(C)cc3)nnc3ccccc23)c(OC)c1 -7.07%
Cc1ccccc1Cn1c(CN2CCC(C(=O)NCCc3ccccc3)CC2)cc2ccccc21 0.646%
CCN(CC)CCCNC(=O)c1nn(C)c2c1CS(=O)(=O)c1ccccc1-2 -1.76%
CCN1C(=O)c2ccccc2Sc2ccc(NC(=O)c3ccc(Cl)cc3)cc21 -8.59%
Cc1cccc(NS(=O)(=O)c2ccc3c(c2)C(C)(C)C(=O)N3C)c1 -10.1%
CCc1nn(Cc2ccc(Cl)cc2)c(=O)c2cc3cc(C)ccc3n12 -18%
CC(=O)Oc1cc2c(s1)CCN(C(C(=O)C1CC1)c1ccccc1F)C2 (stereo unspecified) 15.1%
CS(=O)(=O)N(Cc1ccco1)CC(O)Cn1c2ccccc2c2ccccc21 (stereo unspecified) -3.99%
CCOC(=O)N1CCc2c(sc(NCc3cc(OC)c(OC)cc3OC)c2C(=O)Nc2ccc(OCC)cc2)C1 3.67%
CCOC(=O)c1ccc(-c2ccc(/C=C(\C#N)C(=O)Nc3ccc(OCC)cc3)o2)cc1 2.16%
Cc1cccc(-c2nc(SCCCOc3ccc(Cl)c(C)c3)n3[nH]c(=O)cc3n2)c1 -8.28%
CCN1CCN(c2ncc3c(n2)CCN(Cc2ccc(OC(C)C)cc2)C3)CC1 11.2%
Cc1ccc(NS(=O)(=O)c2ccc3c(c2)CCCN3C(=O)C2CCC2)c(C)c1 1.9%
CCOC(=O)c1c(S(=O)(=O)NCC(=O)Nc2cc(C)ccc2C)c(C)n(C)c1C 0.955%
CCc1nn(Cc2cc(C)ccc2C)c(=O)c2cc3cc(C)ccc3n12 25.1%
CCN(CC)CCCCNc1nc2cc(Cl)c(Cl)cc2nc1-c1ccc(-c2cccs2)s1 -13.2%
CCCSc1nc2sc3c(c2c(=O)n1Cc1ccccc1)CC(C)(CC)OC3 (stereo unspecified) 7.96%
COc1ccc(Cl)cc1-n1nnc(-c2nsc(NC(=O)c3ccccc3Cl)n2)c1C 72.1%
COc1ccc(C2(CNC(=O)C(=O)Nc3ccc(F)cc3)CCCC2)cc1OC 3.96%
COC(=O)c1nnn(-c2cccc(C)c2)c1C(=O)OC -20.8%
COc1ccc(N2CC(NC(=O)c3ccc(Br)o3)CC2=O)cc1 (stereo unspecified) -0.186%
COc1ccc(N2CCN(C(=O)c3cc4c(s3)-c3ccccc3OC4)CC2)cc1 -12.7%
COc1ccc(CN2CCN(c3ncnc4sc5c(c34)CC(C)CC5)CC2)cc1F (stereo unspecified) 8.67%
Cc1cc(Cl)ccc1NC(=O)CN(c1ccccc1Br)S(C)(=O)=O 16.7%
CCOc1ccccc1CNC(=O)C1CCN(S(=O)(=O)c2ccc3c(ccn3C)c2)CC1 -5.59%
O=C(Cn1ncc2c([nH]c3ccccc32)c1=O)NCC1CCN(Cc2ccc(F)cc2)CC1 4.85%
Cc1ccccc1C(=O)Nc1nc(-c2nnn(-c3ccc(C(C)C)cc3)c2C)ns1 -18%
CC(C)C(=O)Nc1ccc([N+](=O)[O-])c(C(F)(F)F)c1 -4.88%
CCn1cc(S(=O)(=O)c2cccc(Cl)c2)c(=O)c2cc(F)c(N3CCN(c4ccccc4)CC3)cc21 9.6%
CC1=C(C(=O)NCc2ccc(Cl)cc2)C2(CCCCC2)OC1=O -8%
COc1cc(OC)c(NC(=O)Cn2c(=O)oc3cc(S(=O)(=O)N4CCCC4)ccc32)cc1Cl 8.66%
Cc1ccc(CN2C(=O)c3oc4ccc(C)cc4c(=O)c3C2c2ccc(O)cc2)cc1 (stereo unspecified) 4.62%
CCCCCn1c(-c2ccc(OC)c(OC)c2)nc2ccccc21 -4.85%
Cc1ccc(Cl)cc1N1CCN(S(=O)(=O)c2ccc3c(c2)CCCN3C(=O)C2CCC2)CC1 -14.3%
COc1cc2c(=O)n(CCC(=O)NCC3CCCO3)c(=O)n(CC(=O)Nc3ccc(C)c(C)c3)c2cc1OC (stereo unspecified) 19.5%
Cc1ccc(OCC(=O)N(Cc2ccco2)Cc2ccc(C)o2)cc1 -8.92%
COc1ccc(-c2cc(C(F)(F)F)n3nc(C(=O)Nc4ccccc4SC)cc3n2)cc1OC 50.7%
CCC(C)NC(=O)c1nn(-c2ccc(C)cc2)c(=O)n(C)c1=O (stereo unspecified) -1.7%
CCOc1ccccc1NC(=O)c1cnn2c(C(F)F)cc(-c3ccccc3)nc12 3.89%
CC(C)c1cccc(OCCn2c(-c3ccc(Cl)cc3)nc3ccccc3c2=O)c1 -21.1%
COc1cccc(CCNC(=O)c2c(O)nc3ccccn3c2=O)c1 5.4%
CC(=O)O[C@]1(C(C)=O)CC[C@@H]2[C@@H]3C[C@H](C)C4=CC(=O)CC[C@]4(C)[C@H]3CC[C@@]21C 20%
Cc1ccccc1C(=O)OCc1cc(=O)n2nc(-c3cccs3)sc2n1 4.16%
CN(C)CCN(Cc1ccco1)C(=O)c1oc2ccccc2c1NC(=O)c1ccccc1 -14.9%

outcome, inactive:
Cc1cc(NC(=O)C2CCN(S(=O)(=O)c3ccc(Br)s3)CC2)ccc1Br
Cc1ccc2c(=O)cc(C(=O)Nc3sc4c(c3C(=O)NCc3cccnc3)CCCC4)oc2c1C
COc1ccc(S(=O)(=O)NCC(c2ccco2)N2CCOCC2)cc1OC (stereo unspecified)
COc1ccc(C(=O)NCC(c2ccc(N(C)C)cc2)N2CCc3ccccc32)c(OC)c1 (stereo unspecified)
COc1cccc(NC(=O)CC2NCCNC2=O)c1 (stereo unspecified)
COc1ccc(Cn2c(=O)c3oc4ccccc4c3n(Cc3ccc(Cl)cc3)c2=O)cc1
CCCCCNC(=O)CCCCCn1c(=O)[nH]c2ccsc2c1=O
O=C(Cn1nnc(-c2ccccc2Cl)n1)Nc1ccc(Br)cc1
COc1ccc2c(c1)c1c(c(=O)n(-c3ccc(F)c(Cl)c3)c(=O)n1Cc1ccccc1C)n2C
Cc1ccc2sc(NC(=O)c3ccc4c(c3)OCCO4)nc2c1C
CCN(CC)c1nc2ccccc2nc1C(=O)Nc1cccc(C(C)=O)c1
COc1ccc2c(c1)c1c(c(=O)n(CCc3ccccc3)c(=O)n1Cc1ccc(F)cc1)n2C
CCC(=O)Nc1cccc(C(=O)OCc2cc(=O)n3nc(CC)sc3n2)c1
Cc1oc2ncn(C)c(=O)c2c1C(=O)N1CCN(c2ccccc2F)CC1
Cc1ccc(NC(=O)c2sc3nc4c(cc3c2N)CN(Cc2ccccc2)CC4)cc1
CCN(CC)C(=O)Cn1cc(SCC(=O)Nc2ccccc2C)c2ccccc21
CCc1ccc(-n2c(=O)c3cccnc3n2CC(=O)Nc2cc(F)ccc2F)cc1
CCOC(=O)c1cccc(NC(=O)NCc2ccc3c(c2)CCN3C(=O)c2ccccc2)c1
CCc1ccccc1NC(=O)C(=O)NCC(c1cccnc1)N1CCN(c2ccccc2F)CC1 (stereo unspecified)
Cc1ccc(NC(=O)C2CCC(CNS(=O)(=O)c3csc(C(N)=O)c3)CC2)cc1Cl (stereo unspecified)
Cc1ccc(-c2cn3c(n2)sc2cc(C(=O)NC(C)C45CC6CC(CC(C6)C4)C5)ccc23)cc1 (stereo unspecified)
CCc1nn2c(=O)cc(COC(=O)c3ccco3)nc2s1
COc1ccccc1N1CCN(CCCNC(=O)c2cnn(-c3ccccc3)c2C2CCN(C(=O)OC(C)(C)C)CC2)CC1
Cc1nc2ccn(Cc3cccs3)c(=O)c2cc1C(=O)Nc1ccccc1
Cc1ccc(/C=C/c2onc(C)c2S(=O)(=O)N2CCC(C(=O)NCC(C)c3ccccc3)CC2)cc1 (stereo unspecified)
CCc1ccc(-n2c(Cc3ccccc3)nnc2SCc2nc(-c3cccs3)no2)cc1
Cc1ccc(C)n1-c1nnc(N2CCCC(C(=O)NCc3cccc(Cl)c3)C2)s1 (stereo unspecified)
COc1ccc(NS(=O)(=O)c2ccc3[nH]c4c(c3c2)CCCC4)cc1Cl
COCCCNC(=O)C1CCN(c2nn3cc(-c4ccc(F)cc4)nc3s2)CC1
